# PubChem BioAssay (NCATS)
# The inconclusive results got no clear call from the source; some entries with a clear call stand among them for comparison. For some of these results: Potencies beside an inconclusive call are fits to weak or partial responses and may not hold up. Active and inactive are the calls of the source. The call rests on the fitted dose curve; in most records, active means well fitted curve in the direction sought with a large enough effect; inconclusive means small, poorly fitted or top-dose-only effect, or another doubt; inactive means no such curve, though single readings can be large; an effect the other way counts as inactive or inconclusive.
# Legend:
# [1] = qHTS of pediatric cancer cell lines to identify multiple opportunities for drug repurposing: Primary screen for RD cells (AID 1347104); further: nearly all actives have a fitted effect of over 55% in size; further: potency means the concentration at half of the fitted maximal effect
# Outline: (§1)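 Viability was measured as metabolically active cells after 48 hours of treatment, read by CellTiter-Glo luminescence. Compounds were tested at multiple final concentrations, giving concentration-response curves.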
# [2] = qHTS of pediatric cancer cell lines to identify multiple opportunities for drug repurposing: Primary screen for Rh41 cells (AID 1347108); further: nearly all actives have a fitted effect of over 70% in size; further: potency means the concentration at half of the fitted maximal effect;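 on activity change, negative = cytotoxic: luminescence drop marks cytotoxic hits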
# Outline: as §1
# [3] = qHTS of pediatric cancer cell lines to identify multiple opportunities for drug repurposing: Primary screen for MG 63 (6-TG R) cells (AID 1347105); settings: MG 63 (6-TG R) viability, CellTiter-Glo, 48 h; activity change, negative = cytotoxic: at 46 µM (top of the series) unless noted; further: nearly all actives have a fitted effect of over 50% in size
# Outline: as §1
# [4] = qHTS of pediatric cancer cell lines to identify multiple opportunities for drug repurposing: Primary screen for Rh30 cells (AID 1347107); further: nearly all actives have a fitted effect of over 75% in size; further: potency means the concentration at half of the fitted maximal effect
# Outline: (§2)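 Cells (500-1,000/well) rested 5 h, then received compounds for 48 h; metabolically active cells were measured by CellTiter-Glo luminescence. Final concentrations spanned up to 46 µM (MIPE, 11-point) or 0.59 nM-46 µM (NPC, 8-point) in primary screens, 11-point in follow-ups.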
# [5] = qHTS of pediatric cancer cell lines to identify multiple opportunities for drug repurposing: Confirmatory screen for NB1643 cells (AID 1347109); settings: NB1643 neuroblastoma cell viability; activity change, negative = cytotoxic: at 45.9 µM (top of the series) unless noted; further: potency means the concentration at half of the fitted maximal effect; nearly all actives have a fitted effect of over 45% in size
# Outline: as §2
# [6] = qHTS of pediatric cancer cell lines to identify multiple opportunities for drug repurposing: Confirmatory screen for A673 cells (AID 1347110);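 further: potency means the concentration at half of the fitted maximal effect; cells exposed to compound for 48 h before the viability read; nearly all actives have a fitted effect of over 65% in size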
# Outline: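 Viability was read as ATP luminescence (CellTiter-Glo) after 48 h of compound exposure at 37 C in A673 cells seeded at 500-1,000/well. Titrations reached 46 uM final, with 11 points in the confirmatory screen. Concentration-response curves were fitted directly.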
# [7] = qHTS of pediatric cancer cell lines to identify multiple opportunities for drug repurposing: Confirmatory screen for SK-N-MC cells (AID 1347111);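 further: potency means the concentration at half of the fitted maximal effect; cells exposed to compound for 48 h before the readout; nearly all actives have a fitted effect of over 70% in size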
# Outline: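 Seed 500-1,000 cells/well; rest 5 h at 37 degrees C. Pin-transfer compounds, 11-point titration. Incubate 48 h. Add CellTiter-Glo, 15 min RT, read luminescence.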
# [8] = qHTS of pediatric cancer cell lines to identify multiple opportunities for drug repurposing: Confirmatory screen for BT-12 cells (AID 1347112); further: potency means the concentration at half of the fitted maximal effect; nearly all actives have a fitted effect of over 55% in size
# Outline: as §2
# Tags describe the fitted curve by direction and shape.
structure (smiles),measurement,setting,value
NCC1(CC(=O)O)CCCCC1,Potency,[1],inactive
same,Potency,[2],inactive
Oc1ccc2c3c1O[C@H]1[C@@H](O)C=C[C@H]4[C@@H](C2)NCC[C@@]341,Potency,[3],inactive
CC(C)N(CCNC(=O)CN1CCCC1=O)C(C)C,Potency,[3],inactive
CC(=O)OCC1=C(C(=O)O)N2C(=O)[C@@H](N)[C@@H]2SC1,Potency,[1],"inconclusive: 1.48 µM [cytotoxic, full curve, poor fit]"
same,Potency,[2],inactive
CCO[C@H]1O[C@@H]2OC3(C)CC[C@H]4[C@H](C)CC[C@@H]([C@H]1C)[C@@]24OO3,Potency,[1],"inconclusive: 2.11 µM [cytotoxic, partial curve]"
same,Potency,[2],"inconclusive: 5.31 µM [cytotoxic, partial curve, poor fit]"
C=CCC1=C(C)C(OC(=O)C2C(C=C(C)C)C2(C)C)CC1=O (configuration not stated),Potency,[1],"inconclusive: 34.4 µM [cytotoxic, partial curve, poor fit]"
same,Potency,[4],"inconclusive: 68.6 µM [cytotoxic, partial curve, poor fit]"
same,Potency,[2],"inconclusive: 21.7 µM [cytotoxic, partial curve, poor fit]"
C=C[C@@H]1CN2CCC1C[C@@H]2[C@@H](O)c1ccnc2ccccc12 (some centres not stated),Potency,[1],active: 29.6 µM
same,Potency,[4],"inconclusive: 18.7 µM [cytotoxic, partial curve]"
same,Potency,[2],"inconclusive: 18.7 µM [cytotoxic, partial curve]"
CCC(C(N)=O)N1CCCC1=O (configuration not stated),Potency,[3],inactive
COCCOCCO,Potency,[3],inactive
CC(C)CC(N(C)C)C1(c2ccc(Cl)cc2)CCC1 (configuration not stated),Potency,[1],"inconclusive: 26.6 µM [cytotoxic, partial curve, poor fit]"
same,Potency,[4],inactive
same,Potency,[5],"inconclusive: 23.3 µM [cytotoxic, partial curve, poor fit]"
same,Potency,[6],"inconclusive: 20.8 µM [cytotoxic, single point]"
same,Potency,[7],"inconclusive: 5.22 µM [cytotoxic, partial curve, poor fit]"
same,Potency,[8],"inconclusive: 7.37 µM [cytotoxic, partial curve, poor fit]"
